Measurements: PubChem BioAssay AID686979 (National Center for Advancing Translational Sciences (NCATS), 2013)
Among all 420,000 compounds or so, about 50,000 (12%) were called active. Inconclusive means that the source gave no clear call. Such entries were picked first, then a sample of the others. The call rests on the fitted dose curve; in most records, active means well fitted inhibition curve with a large enough effect; inconclusive means small, poorly fitted or top-dose-only effect; inactive means flat fitted curve, though single readings scatter. Potencies of inconclusive entries are left out as doubtful fits.

Assay: qHTS for Inhibitors of human tyrosyl-DNA phosphodiesterase 1 (TDP1): qHTS in cells in presence of CPT; further: nearly all actives have a fitted effect of over 55% in size
Settings: chicken DT40 Tdp1-/-;hTDP1 cells + 20 nM CPT, ATP luminescence, 48 h; series mostly up to 46.2 µM
Outline: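 Cell growth measured by CellTiter-Glo luminescence after a minimum 48 h, 37 C compound exposure with 20 nM CPT in Tdp1-knockout DT40 cells stably expressing hTDP1, seeded 400/well; qHTS titration format.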
Potency means the concentration at half of the fitted maximal effect; tags describe the fitted curve by direction and shape.

SMILES | Potency
Cc1ccccc1-c1nc(S(=O)(=O)c2ccccc2)c(N2CCCC2)o1 | inconclusive [inhibitor, single point]
CCCCCCN1C[C@@H](O)[C@H](n2cc(C3CC3)nn2)C[C@@H]1c1ccc(Cl)cc1 | active: 25.9 µM
COc1ccc(C2C=C(C34CC5CC(CC(C5)C3)C4)NC(=S)N2)cc1 (stereo not given) | inconclusive [inhibitor, single point]
CCC(CC)C(=O)N(C)c1c(C)nc2c(OCc3ccc(Cl)cc3Cl)cccn12 | active: 4.61 µM
CCCCN(CC)CCNS(=O)(=O)c1ccc2c(c1)oc(=O)n2C | inactive
Cc1c(Cl)sn(-c2ccc(Cl)cc2)c1=O | active: 0.259 µM
CC(C)(C)c1csc(NC(=O)CSc2nc3ccccc3c(=O)[nH]2)n1 | active: 18.4 µM
CCC(=O)Nc1ccc(C(=O)CSc2nc3ccc(C)cc3[nH]2)cc1 | inconclusive [inhibitor, partial curve, poor fit]
O=C(NC(=S)N1CCN(C/C=C/c2ccccc2)CC1)c1ccc(F)cc1 | inconclusive [inhibitor, single point]
Cc1ccc(-n2nc(C)c(/C=N/n3c(C)n[nH]c3=S)c2Cl)cc1 | inconclusive [inhibitor, single point]
COc1ccc(NC(=O)COC(=O)Cc2c(F)cccc2Cl)cc1 | inactive
COC(=O)c1sccc1NC(=O)CN(C)NS(=O)(=O)c1ccc(F)cc1 | active: 18.4 µM
COc1ccccc1N1CCN(C(=O)Cc2ccc(Cl)cc2)CC1 | inconclusive [inhibitor, full curve]
CN(C)CCCN1c2ccc(O)cc2Sc2ccc(Cl)cc21 | inconclusive [inhibitor, single point]
CCOc1ccc(OCCC(=O)N(CCC2=CCCCC2)c2c(N)n(Cc3ccccc3)c(=O)[nH]c2=O)cc1 | active: 16.4 µM
CCCCNC(=O)C1(C)CCN1Cc1ccc(C(=O)OCC)cc1 (stereo not given) | inconclusive [inhibitor, single point]
Cc1nc2sc(C(=O)Nc3ccc(F)cc3)c(N)c2c(-c2ccc(Br)cc2)c1C(=O)Nc1ccc(Cl)cc1 | inconclusive [inhibitor, single point]
O=C(Nc1ccc(NC(=O)c2cccs2)cc1)c1cccc(Br)c1 | inconclusive [inhibitor, single point]
CC(C)(C)C1CCc2c(sc(NC(=O)C3CC=CCC3C(=O)O)c2C#N)C1 (stereo not given) | inactive
CC(=O)OC[C@@H]1CN(Cc2ccccc2)C[C@H](n2cnc3c(NC4CCC4)ncnc32)O1 | inconclusive [inhibitor, single point]
